The list shows a part of the results.

Our source for the binding signal values is publication PMC12820563, “FoxP3 forms a head-to-head dimer in vivo and stabilizes its multimerization on adjacent microsatellites”.

This assay has as its target T1, MBP-FoxP1dN (Mus musculus, UniProt P58462 326-579).
T1 sequence: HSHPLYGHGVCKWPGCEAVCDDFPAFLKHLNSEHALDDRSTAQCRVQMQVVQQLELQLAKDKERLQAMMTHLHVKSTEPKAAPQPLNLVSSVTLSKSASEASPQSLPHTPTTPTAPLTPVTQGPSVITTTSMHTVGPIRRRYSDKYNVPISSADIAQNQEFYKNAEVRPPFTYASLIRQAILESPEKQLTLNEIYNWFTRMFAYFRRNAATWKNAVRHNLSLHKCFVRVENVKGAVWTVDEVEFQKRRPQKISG
Description: PD-seq (MBP pull-down with sequencing); 20 mM Tris-HCl pH 7.5, 100 mM NaCl, 1.5 mM MgCl2, 0.4 uM protein, 0.1 uM dsDNA library, 30 min, room temperature, amylose pull-down; high values mean tight binding. The following applies: protein: recombinant; tags: His6-MBP; chain copies: 2; dsDNA, one strand shown. The gist of the method: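 E. coli-expressed mouse FoxP3 or FoxP1 fragment, N-terminus removed and tagged with His6-MBP, was used at 0.4 µM against 0.1 µM of a Klenow-filled degenerate double-stranded DNA library. After 30 min at room temperature in Tris pH 7.5 buffer with NaCl and MgCl2, complexes were pulled down on amylose resin and washed three times. Binding is pull-down over input reads-per-million enrichment from pooled replicates of the proteinase K-released, PCR-barcoded, Illumina-sequenced DNA.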
As to “GATGATTGTTCTCCCAGCTGATGAATTGTTTTGCTCGAGTAAACAAATTTTCCTAATCTTTCTGTTCAAGCGCCATCTAC”, the binding signal is 1.95 RPM ratio (pull-down/input).

Consider “GATGATTGTTCTCCCAGCTGATGAATTGAAGCTCTCGAGTAAACAAATTTTCCTAATCTTTCTGTTCAAGCGCCATCTAC”, for which the binding signal is 0.797 RPM ratio (pull-down/input).

“GATGATTGTTCTCCCAGCTGATGAATTGTATTAATCGAGTAAACAAATTTTCCTAATCTTTCTGTTCAAGCGCCATCTAC”: the binding signal was 1.24 RPM ratio (pull-down/input).

Take “GATGATTGTTCTCCCAGCTGATGAATTGCCTCTTTCGAGTAAACAAATTTTCCTAATCTTTCTGTTCAAGCGCCATCTAC”: the binding signal is 1.15 RPM ratio (pull-down/input).

For the sequence “GATGATTGTTCTCCCAGCTGATGAATTTACTAGGTCGAGTAAACAAATTTTCCTAATCTTTCTGTTCAAGCGCCATCTAC”, the binding signal was 1.09 RPM ratio (pull-down/input).

For “GATGATTGTTCTCCCAGCTGATGAATTTTCCAGATCGAGTAAACAAATTTTCCTAATCTTTCTGTTCAAGCGCCATCTAC”, the binding signal is 0.885 RPM ratio (pull-down/input).

As for “GATGATTGTTCTCCCAGCTGATGAATTCTATACGTCGAGTAAACAAATTTTCCTAATCTTTCTGTTCAAGCGCCATCTAC”, the binding signal was 0.962 RPM ratio (pull-down/input).

On to “GATGATTGTTCTCCCAGCTGATGAATTACTTCAGTCGAGTAAACAAATTTTCCTAATCTTTCTGTTCAAGCGCCATCTAC”, for which the binding signal was 0.978 RPM ratio (pull-down/input).

“GATGATTGTTCTCCCAGCTGATGAATTTTTGCAATCGAGTAAACAAATTTTCCTAATCTTTCTGTTCAAGCGCCATCTAC”: the binding signal was 1.26 RPM ratio (pull-down/input).

Turning to “GATGATTGTTCTCCCAGCTGATGAATTTAGCTTGTCGAGTAAACAAATTTTCCTAATCTTTCTGTTCAAGCGCCATCTAC”, the binding signal is 0.967 RPM ratio (pull-down/input).

As for “GATGATTGTTCTCCCAGCTGATGAATTCAGCAGCTCGAGTAAACAAATTTTCCTAATCTTTCTGTTCAAGCGCCATCTAC”, the binding signal was 0.764 RPM ratio (pull-down/input).

Consider “GATGATTGTTCTCCCAGCTGATGAATTACTAGTATCGAGTAAACAAATTTTCCTAATCTTTCTGTTCAAGCGCCATCTAC”, for which the binding signal was 1.27 RPM ratio (pull-down/input).

Consider “GATGATTGTTCTCCCAGCTGATGAATTGCGGTTCTCGAGTAAACAAATTTTCCTAATCTTTCTGTTCAAGCGCCATCTAC”, for which the binding signal was 0.916 RPM ratio (pull-down/input).

Regarding “GATGATTGTTCTCCCAGCTGATGAATTGTACTCATCGAGTAAACAAATTTTCCTAATCTTTCTGTTCAAGCGCCATCTAC”, the binding signal was 1.04 RPM ratio (pull-down/input).

For “GATGATTGTTCTCCCAGCTGATGAATTTGTATGCTCGAGTAAACAAATTTTCCTAATCTTTCTGTTCAAGCGCCATCTAC”, the binding signal is 1.43 RPM ratio (pull-down/input).

Take “GATGATTGTTCTCCCAGCTGATGAATTCGGAAAGTCGAGTAAACAAATTTTCCTAATCTTTCTGTTCAAGCGCCATCTAC”: the binding signal is 0.767 RPM ratio (pull-down/input).

Regarding “GATGATTGTTCTCCCAGCTGATGAATTCGTCTATTCGAGTAAACAAATTTTCCTAATCTTTCTGTTCAAGCGCCATCTAC”, the binding signal is 0.974 RPM ratio (pull-down/input).

Take “GATGATTGTTCTCCCAGCTGATGAATTACTGTCATCGAGTAAACAAATTTTCCTAATCTTTCTGTTCAAGCGCCATCTAC”: the binding signal was 1.34 RPM ratio (pull-down/input).

For “GATGATTGTTCTCCCAGCTGATGAATTCATACGCTCGAGTAAACAAATTTTCCTAATCTTTCTGTTCAAGCGCCATCTAC”, the binding signal is 0.87 RPM ratio (pull-down/input).

For the sequence “GATGATTGTTCTCCCAGCTGATGAATTGTTACTCTCGAGTAAACAAATTTTCCTAATCTTTCTGTTCAAGCGCCATCTAC”, the binding signal was 1.24 RPM ratio (pull-down/input).

“GATGATTGTTCTCCCAGCTGATGAATTAGGAAGGTCGAGTAAACAAATTTTCCTAATCTTTCTGTTCAAGCGCCATCTAC”: the binding signal was 0.81 RPM ratio (pull-down/input).

As for “GATGATTGTTCTCCCAGCTGATGAATTCAAGCCGTCGAGTAAACAAATTTTCCTAATCTTTCTGTTCAAGCGCCATCTAC”, the binding signal is 0.753 RPM ratio (pull-down/input).

Regarding “GATGATTGTTCTCCCAGCTGATGAATTCTGCCTCTCGAGTAAACAAATTTTCCTAATCTTTCTGTTCAAGCGCCATCTAC”, the binding signal was 0.93 RPM ratio (pull-down/input).

For the sequence “GATGATTGTTCTCCCAGCTGATGAATTGCGCTGGTCGAGTAAACAAATTTTCCTAATCTTTCTGTTCAAGCGCCATCTAC”, the binding signal is 1.13 RPM ratio (pull-down/input).

With “GATGATTGTTCTCCCAGCTGATGAATTTAGCTCGTCGAGTAAACAAATTTTCCTAATCTTTCTGTTCAAGCGCCATCTAC”, the binding signal was 0.852 RPM ratio (pull-down/input).

Turning to “GATGATTGTTCTCCCAGCTGATGAATTATTTTGGTCGAGTAAACAAATTTTCCTAATCTTTCTGTTCAAGCGCCATCTAC”, the binding signal is 1.35 RPM ratio (pull-down/input).

On to “GATGATTGTTCTCCCAGCTGATGAATTTAGGAGTTCGAGTAAACAAATTTTCCTAATCTTTCTGTTCAAGCGCCATCTAC”, for which the binding signal is 0.96 RPM ratio (pull-down/input).

For the sequence “GATGATTGTTCTCCCAGCTGATGAATTAGGCTTTTCGAGTAAACAAATTTTCCTAATCTTTCTGTTCAAGCGCCATCTAC”, the binding signal is 0.831 RPM ratio (pull-down/input).

For “GATGATTGTTCTCCCAGCTGATGAATTAGACTAGTCGAGTAAACAAATTTTCCTAATCTTTCTGTTCAAGCGCCATCTAC”, the binding signal was 0.914 RPM ratio (pull-down/input).

Consider “GATGATTGTTCTCCCAGCTGATGAATTCGTATGTTCGAGTAAACAAATTTTCCTAATCTTTCTGTTCAAGCGCCATCTAC”, for which the binding signal is 1.11 RPM ratio (pull-down/input).

For the sequence “GATGATTGTTCTCCCAGCTGATGAATTTGCACAATCGAGTAAACAAATTTTCCTAATCTTTCTGTTCAAGCGCCATCTAC”, the binding signal is 1.49 RPM ratio (pull-down/input).

For “GATGATTGTTCTCCCAGCTGATGAATTTTGTCGGTCGAGTAAACAAATTTTCCTAATCTTTCTGTTCAAGCGCCATCTAC”, the binding signal was 0.897 RPM ratio (pull-down/input).
